About 14,000 (4.5%) of roughly 310,000 compounds showed an effect of 50% or more. The effect is printed as a negative number. This is one part of the list.
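Note: peak tail current of the secondary pulse compared with the same well before compound.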

Chain of human ether-à-go-go-related gene (hERG) potassium channel (Q12809 whole entry, looked up): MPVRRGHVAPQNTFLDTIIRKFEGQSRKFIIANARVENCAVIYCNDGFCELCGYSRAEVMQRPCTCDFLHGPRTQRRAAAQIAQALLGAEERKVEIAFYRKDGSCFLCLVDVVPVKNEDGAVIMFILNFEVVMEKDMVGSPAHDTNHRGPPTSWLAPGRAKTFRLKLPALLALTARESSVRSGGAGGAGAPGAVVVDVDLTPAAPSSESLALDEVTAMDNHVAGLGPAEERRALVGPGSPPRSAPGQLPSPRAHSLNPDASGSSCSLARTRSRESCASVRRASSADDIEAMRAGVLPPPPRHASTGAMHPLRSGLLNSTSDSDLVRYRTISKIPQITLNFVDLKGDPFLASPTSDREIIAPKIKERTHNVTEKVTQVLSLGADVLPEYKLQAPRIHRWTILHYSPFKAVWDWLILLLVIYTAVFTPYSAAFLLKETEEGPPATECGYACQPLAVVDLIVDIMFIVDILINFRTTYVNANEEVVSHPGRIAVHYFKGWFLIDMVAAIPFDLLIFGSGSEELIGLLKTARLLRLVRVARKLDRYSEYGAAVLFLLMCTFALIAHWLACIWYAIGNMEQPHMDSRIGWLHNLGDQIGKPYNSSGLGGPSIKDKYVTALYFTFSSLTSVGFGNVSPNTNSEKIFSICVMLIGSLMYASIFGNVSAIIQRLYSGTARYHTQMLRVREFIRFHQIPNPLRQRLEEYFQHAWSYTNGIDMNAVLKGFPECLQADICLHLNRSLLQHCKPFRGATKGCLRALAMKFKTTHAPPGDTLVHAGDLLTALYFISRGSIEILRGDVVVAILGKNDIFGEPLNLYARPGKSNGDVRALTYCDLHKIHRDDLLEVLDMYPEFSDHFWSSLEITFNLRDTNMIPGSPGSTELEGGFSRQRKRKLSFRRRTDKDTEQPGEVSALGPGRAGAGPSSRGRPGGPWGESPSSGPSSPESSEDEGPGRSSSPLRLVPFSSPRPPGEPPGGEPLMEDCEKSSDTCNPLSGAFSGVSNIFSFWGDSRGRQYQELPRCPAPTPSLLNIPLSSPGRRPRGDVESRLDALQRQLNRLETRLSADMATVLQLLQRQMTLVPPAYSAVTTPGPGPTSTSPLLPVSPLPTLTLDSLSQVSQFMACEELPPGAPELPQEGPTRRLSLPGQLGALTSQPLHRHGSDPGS

The test addresses human ether-à-go-go-related gene (hERG) potassium channel (human, UniProt Q12809). Description: primary screen, population patch clamp on CHO cells stably expressing hERG.
For `CCC1(c2ccc(F)cc2)NC(=O)N(CC(=O)N2CCN(S(=O)(=O)c3ccc(C)cc3)CC2)C1=O` (stereo not drawn), the “hERG current change (%, negative = inhibition) at 10uM” value was -18%. For the compound `CC1CN(c2oc(COc3ccc(Cl)cc3Cl)nc2C#N)CC(C)O1` (stereo not drawn), the “hERG current change (%, negative = inhibition) at 10uM” value was -13.6%.

Regarding `O=C(Nc1ccc(Cl)c([N+](=O)[O-])c1)Nc1nc2ccccc2s1`, the “hERG current change (%, negative = inhibition) at 10uM” value was 17.6%.

For `CC(C(=O)N1CCCc2c1c(=O)oc1ccc(O)cc21)N1CCc2ccccc2C1` (stereo not drawn), the “hERG current change (%, negative = inhibition) at 10uM” value was -56.5%. In the case of `COc1cc(C(=O)NCc2ccccn2)ccc1OCc1c(C)noc1C`, the “hERG current change (%, negative = inhibition) at 10uM” value was -5.19%. Under `Cc1cccnc1Nc1nc(-c2ccc(F)cc2)cs1` stands 8.48%; under `CCCn1nc(C(=O)NCC2COc3ccccc3O2)c2ccccc2c1=O` (stereo not drawn), -36.2%; under `COc1ccc(S(=O)(=O)Oc2cccc(/C=N/N=C3/NC(=O)C(CC(=O)O)S3)c2)cc1` (stereo not drawn), 15.3%. `[O-]C1=N/[N+](=C/c2ccccc2)CC1`: the “hERG current change (%, negative = inhibition) at 10uM” value came to 5.81%. Under `Cc1ccc(C)n1-c1sc2c(c1C#N)CCC(C)C2` (stereo not drawn) stands 11%.

On to `COC(=O)c1ccc([N+](=O)[O-])cc1N1C(=O)C2C3CCC(C3)C2C1=O` (stereo not drawn), for which the “hERG current change (%, negative = inhibition) at 10uM” value stood at 13.3%. With `COC(=O)c1cc(C(=O)NCCCN2CCOCC2)cc([N+](=O)[O-])c1.Cl` the figure was 25.3%; with `COc1ccc(N(CC(=O)NCCC2=CCCCC2)S(=O)(=O)c2ccccc2)cc1OC`, -6.49%; with `CC(C)CN1C(=O)c2ccc(C(=O)Nc3ccncc3)cc2C1=O`, -29.4%. Turning to `COC(CN1C(=O)C(=O)/C(=C(/O)c2ccccc2)C1c1ccccn1)OC` (stereo not drawn), the “hERG current change (%, negative = inhibition) at 10uM” value is 9.62%. Under `CCOc1ccc(C2C(C(C)=O)=C(O)C(=O)N2CCc2c[nH]c3ccccc23)cc1` (stereo not drawn) stands 10.3%; under `O=C(COC(=O)C12CC3CC(CC(C3)C1)C2)NCCCc1ccccc1`, 2.32%; under `COc1cccc(C(=O)N/N=C2\SCC(=O)N2Cc2ccc3c(c2)OCO3)c1`, -26.2%.

In the case of `COc1ccc(C(=O)OCC(=O)C(C)(C)C)cc1S(=O)(=O)N(C)CCc1cccnc1`, the “hERG current change (%, negative = inhibition) at 10uM” value was -5.5%. Under `CCN(C(=O)COC(=O)CSc1ccccc1)c1c(N)n(Cc2ccccc2)c(=O)[nH]c1=O` stands 4.11%; under `CCCCNC(=O)c1sc2nc(C)cc(COC)c2c1-n1cccc1`, -10.7%; under `COc1ccnc(Oc2ccc(F)cc2)c1C(=O)N/C=N/OCc1ccccc1`, -6.62%. As for `CCC1CCCCN1C(=O)CSc1nnc(-c2cccs2)o1` (stereo not drawn), the “hERG current change (%, negative = inhibition) at 10uM” value is listed as -11.4%. Under `O=C(O)C1C2C=CC(C2)C1C(=O)NCCCN1CCOCC1` (stereo not drawn) stands 13.3%. Turning to `COCCCNC(=O)Cn1nnc(-c2ccccc2NC(=O)c2ccc(F)cc2)n1`, the “hERG current change (%, negative = inhibition) at 10uM” value is reported as 10.6%.

Regarding `CCCN(CCC)S(=O)(=O)c1cc(CN2C(=O)c3cccnc3C2=O)ccc1OC`, the “hERG current change (%, negative = inhibition) at 10uM” value is on record as -2.88%. Turning to `Cc1cccc(C(=O)N2CCC(n3nnc4cc(F)ccc43)CC2)c1`, the “hERG current change (%, negative = inhibition) at 10uM” value is reported as -34.8%. Under `CC(C)(C)NC(=S)N1CCC(C(=O)c2ccc(Cl)cc2)CC1` stands 13.9%; under `O=C(OCC(=O)N1CCOCC1)c1ccc(Br)cc1`, 8.72%; under `Cc1cc(C)cc(Oc2nc3c(C)cccn3c(=O)c2/C=C(\C#N)C(=O)NC2CCS(=O)(=O)C2)c1` (stereo not drawn), -25.1%.

Turning to `Cc1ccc(SC[C@H](Cc2ccccc2)N2CC[C@@H](NC(=O)OCc3ccccc3)CCC2=O)cc1`, the “hERG current change (%, negative = inhibition) at 10uM” value is on record as -47.2%. As to `COc1cccc(/C=C/C(=O)NNC(=O)c2ccco2)c1OC`, the “hERG current change (%, negative = inhibition) at 10uM” value is given as -1.46%.

For `Cc1ccc(C2NC(c3ccc(C)cc3)C([N+](=O)[O-])C(C)(C)C2[N+](=O)[O-])cc1` (stereo not drawn), the “hERG current change (%, negative = inhibition) at 10uM” value is listed as -4.35%.

Take `O=C(Nc1ccc(C(=O)O)cc1)/C(=C\c1ccccc1)NC(=O)c1ccc(Br)cc1`: the “hERG current change (%, negative = inhibition) at 10uM” value is 7.33%. With `CCOc1ccc(S(=O)(=O)NCCC(=O)NCC(c2cccs2)N(C)C)cc1` (stereo not drawn) the figure was -11.6%; with `COc1ccc(OC)c2c1CCC2=O`, 21.1%. With `COc1ccc(-c2nc(C(=O)NCC3CCCO3)cc3c2[nH]c2ccccc23)cc1` (stereo not drawn) the figure was -2.81%; with `O=C(CSc1nc2ccccc2nc1N1CCCCC1)N1CCN(c2ccccc2)CC1`, 1.86%; with `COc1cc(/C=C2\CC/C(=C\c3cc(OC)c(OC)c(OC)c3)C2=O)cc(OC)c1OC`, 21.5%. Turning to `CCOc1ccc(CCNC(=O)c2cccc(N3CCCC3=O)c2)cc1OCC`, the “hERG current change (%, negative = inhibition) at 10uM” value is recorded as 6.89%. Under `N#C/C(=C/c1ccc(OCc2ccc(C(=O)O)cc2)c(Br)c1)c1cccc(F)c1` stands 23.3%; under `CCOC(=O)N1CCN(C(=O)CNC(=O)c2ccc(Br)cc2)CC1`, -29.1%.

The values above are taken from article PMC4336329 (PLoS ONE, 2015).
